Whole data set: some 33,000 sequences, median “E-score (-0.5 to 0.5)” near -0.053, cut for the highest 2% near 0.37. Some of the results follow.
These sequences were tested against Hap1 (UniProt P0CE41) (assay: PBM E-score (8-mer binding enrichment) (E-score (-0.5 to 0.5)); higher = stronger / more preferred TF binding; most listed sequences are background and not binding sites). Details: protein concentration: 200 nM; construct: GST-DNA-binding domain.
Outline: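 Universal all-10-mer Agilent arrays, fresh or stripped once, were converted to double-stranded form by primer extension. GST-tagged yeast transcription factors from PURExpress in vitro transcription/translation, full-length or DNA-binding domain only, were applied at about 100-200 nM and detected with fluorescent anti-GST. After masliner normalisation, the Universal PBM Analysis Suite scored each ungapped eight-base word together with its reverse complement by E-score.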

UniProt P0CE41, sequence (P0CE41 whole entry, the tested form may be a part): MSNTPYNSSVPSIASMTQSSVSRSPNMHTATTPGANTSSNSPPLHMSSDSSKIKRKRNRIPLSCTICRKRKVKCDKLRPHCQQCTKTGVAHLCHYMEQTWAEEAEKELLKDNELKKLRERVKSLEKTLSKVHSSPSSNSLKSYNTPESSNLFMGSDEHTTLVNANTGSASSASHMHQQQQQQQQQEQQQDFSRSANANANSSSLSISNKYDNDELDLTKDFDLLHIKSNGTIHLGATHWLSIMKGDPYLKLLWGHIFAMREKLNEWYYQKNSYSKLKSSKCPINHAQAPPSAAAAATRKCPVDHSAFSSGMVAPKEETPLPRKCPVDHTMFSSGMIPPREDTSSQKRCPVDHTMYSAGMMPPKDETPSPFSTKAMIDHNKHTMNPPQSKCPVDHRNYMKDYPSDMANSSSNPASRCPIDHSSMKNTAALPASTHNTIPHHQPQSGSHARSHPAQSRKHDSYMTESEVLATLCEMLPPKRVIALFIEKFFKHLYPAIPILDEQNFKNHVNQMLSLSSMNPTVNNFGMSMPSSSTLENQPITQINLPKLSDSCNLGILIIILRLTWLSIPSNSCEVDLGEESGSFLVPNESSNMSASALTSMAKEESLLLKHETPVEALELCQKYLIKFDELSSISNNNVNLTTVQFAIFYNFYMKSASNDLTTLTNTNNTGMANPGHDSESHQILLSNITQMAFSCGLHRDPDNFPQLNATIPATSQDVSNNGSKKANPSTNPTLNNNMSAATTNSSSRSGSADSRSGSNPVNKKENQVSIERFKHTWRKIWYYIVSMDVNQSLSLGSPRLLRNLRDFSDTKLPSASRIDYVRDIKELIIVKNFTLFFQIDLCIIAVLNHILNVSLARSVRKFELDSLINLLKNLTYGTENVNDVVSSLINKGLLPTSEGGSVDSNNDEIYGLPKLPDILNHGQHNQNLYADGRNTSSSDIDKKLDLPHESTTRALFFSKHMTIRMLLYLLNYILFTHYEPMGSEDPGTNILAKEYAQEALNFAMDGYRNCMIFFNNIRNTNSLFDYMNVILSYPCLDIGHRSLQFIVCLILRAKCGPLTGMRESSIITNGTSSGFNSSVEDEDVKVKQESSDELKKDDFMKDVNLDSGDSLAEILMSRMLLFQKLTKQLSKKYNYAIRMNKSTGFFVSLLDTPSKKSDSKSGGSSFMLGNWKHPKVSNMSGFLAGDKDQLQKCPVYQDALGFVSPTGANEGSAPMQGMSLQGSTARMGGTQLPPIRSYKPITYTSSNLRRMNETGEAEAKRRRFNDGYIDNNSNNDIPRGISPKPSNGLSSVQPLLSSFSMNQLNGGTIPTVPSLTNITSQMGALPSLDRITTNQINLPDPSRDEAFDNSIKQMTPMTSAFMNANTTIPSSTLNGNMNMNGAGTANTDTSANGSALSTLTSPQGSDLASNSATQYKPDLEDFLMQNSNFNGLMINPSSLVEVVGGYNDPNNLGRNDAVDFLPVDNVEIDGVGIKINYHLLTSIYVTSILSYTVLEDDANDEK

Row | Sequence | PBM E-score
1 | CGTCCATC | -0.00073
2 | CGAAGATC | 0.00962
3 | AGTGGTAA | -0.143
4 | CCTTGGAA | -0.164
5 | GTGGCGGA | 0.136
6 | AGGATACA | -0.212
7 | AAACTCTT | -0.164
8 | GACAAGGA | -0.157
9 | CTAGTGCC | 0.0006
10 | AGGGATTA | -0.136
11 | AGAAATCC | 0.194
12 | AATCCGTC | 0.232
13 | CGAAGAAG | -0.035
14 | ACCCAAGC | -0.0723
15 | GAACGGGA | 0.144
16 | CCTGAGCA | -0.151
17 | ACTACCAC | -0.204
18 | ACTACCTG | -0.0916
19 | GAGTGGCA | 0.0149
20 | AGTCTCAA | -0.154
21 | GTACACAC | -0.0616
22 | CAGCCACG | -0.0824
23 | ACAAGGCA | -0.133
24 | CCTAATTA | -0.126
25 | CCCCCATC | -0.154

Row | Sequence | PBM E-score
26 | GTCCTTAA | -0.159
27 | AATCCGGC | 0.37
28 | TAGGTCAA | -0.27
29 | CGTAATAG | -0.0367
30 | TCCGTCCA | 0.227
31 | ATAGTCTA | 0.0347
32 | CAGTCATC | -0.00405
33 | CCACCTGC | -0.121
34 | CCTTTCTC | -0.16
35 | CGTACCGA | 0.164
36 | ACAAACAA | -0.0939
37 | CTGCATCC | -0.0309
38 | ATATATTC | 0.211
39 | ACCCGAAA | 0.31
40 | ACGAGGTC | -0.17
41 | GGGTATTA | 0.282
42 | CATAGAGG | -0.284
43 | GCGGGTAA | 0.0277
44 | AGCATTAT | -0.199
45 | GGCCGTAC | 0.216
46 | CGTCATGA | -0.0955
47 | ATACCGAG | 0.285
48 | CTCATTTC | -0.00804
49 | CGTGAACA | 0.0105
50 | AATTAGGC | -0.118

Row | Sequence | PBM E-score
51 | ATATGTGC | 0.00425
52 | ATTTGCCC | 0.16
53 | ACTGGTAC | 0.0233
54 | GTAGTGGA | -0.0241
55 | ACCACTCG | 0.0402
56 | CCCTCCTC | -0.185
57 | AGTCTTTG | -0.308
58 | ATAGCAGC | -0.11
59 | AAATAAGT | -0.138
60 | ACCCTAGC | -0.01
61 | ATACATAC | -0.0954
62 | GCTGAGGA | -0.111
63 | ACGGTTAG | -0.111
64 | TAACAGCA | -0.0526
65 | AGGAATGC | -0.253
66 | AATCCGAG | 0.338
67 | AACAGCAC | 0.0482
68 | GGCCTTGA | 0.00297
69 | TCTTTCAA | -0.249
70 | CTTTGACC | 0.0134
71 | ACGTACCA | -0.204
72 | AATCTCTC | -0.0993
73 | GCATCGGA | 0.383
74 | CGGATTCA | 0.175
75 | GTTTTGCA | -0.151

Row | Sequence | PBM E-score
76 | GAGCTTCA | -0.0142
77 | AGTTTCTG | -0.104
78 | CGAACGAA | 0.0587
79 | AGCTCTCA | 0.027
80 | GTTTAGTA | -0.0458
81 | AAGCTCTG | -0.315
82 | CTAAGCAA | -0.168
83 | ACGAATTG | -0.118
84 | GATCGAAC | -0.0567
85 | CAAGTTTA | -0.0421
86 | GCGGTTAC | 0.199
87 | CCCAGTGC | 0.0922
88 | GTACCCAA | -0.264
89 | CACATCTA | -0.0395
90 | GACTAGTC | -0.117
91 | AGTATACC | 0.0345
92 | CAGAACCC | -0.0493
93 | CTGCCCTC | -0.222
94 | GCGACCAC | 0.0929
95 | AGAACCGA | 0.253
96 | AATCCGAA | 0.366
97 | GCATTTCA | -0.03
98 | AGGTTCGG | 0.252
99 | GATATGGA | 0.237
100 | AGGCGACA | 0.0143

Row | Sequence | PBM E-score
101 | ATACATTA | -0.15
102 | ATCCGTGG | 0.329
103 | AAGCTGGC | -0.198
104 | CAGGGAAA | -0.0363
105 | AATGTCCC | 0.104
106 | AGACCGGC | 0.235
107 | AGGGGTGA | -0.27
108 | CAAACGGG | 0.11
109 | CCGCAGCG | 0.2
110 | GAACCGTA | 0.0759
111 | GCGTAAAC | 0.244
112 | CTCGCTGA | 0.0537
113 | ACTATCGA | -0.0147
114 | ACTTTGGC | 0.00084
115 | ATAAAACG | 0.129
116 | GGCACAAC | -0.0668
117 | TGTTCCAA | -0.217
118 | CAAAGGTA | -0.221
119 | CCTCACAC | -0.16
120 | ACTACTGC | -0.124
121 | CGAGCTCC | 0.181
122 | GTTCCTAA | 0.0422
123 | CCAACTCA | -0.0392
124 | ACATTGAC | -0.114
125 | GCATGAGA | -0.107

Row | Sequence | PBM E-score
126 | CCAAATCC | 0.0982
127 | ACATTTCC | 0.23
128 | GCGAGGGA | -0.174
129 | ACATGTTG | -0.0202
130 | GATTCAGC | -0.0382
131 | TCCTATAA | -0.126
132 | TGAAGAAA | -0.0563
133 | GAAGACAA | -0.0986
134 | CAATAATG | -0.0747
135 | GCCTAGAA | -0.0616
136 | CTATCCGA | 0.113
137 | CAGACTGG | -0.398
138 | CCACATCC | 0.126
139 | GGTTGTAC | 0.127
140 | CAAAAATA | 4e-05
141 | GTCGAAAC | 0.0168
142 | ATGAACGC | -0.123
143 | ATAGCGTC | -0.209
144 | GCCACGCC | -0.214
145 | CACTTCGA | -0.184
146 | CTACAGGC | 0.0132
147 | ACGTTCGC | -0.0585
148 | AGAACGGC | 0.124
149 | CCATGAAC | -0.066
150 | TATGGACA | -0.0147

Row | Sequence | PBM E-score
151 | AATCAACG | -0.0391
152 | ACTGGCTC | -0.189
153 | CAGGTGCG | -0.0122
154 | AGTCGTGC | -0.162
155 | AGGTCCCC | -0.0485
156 | AGTTGCAC | -0.0539
157 | ATGTTAGC | -0.0912
158 | ACTCAATC | -0.203
159 | TAGTTAGA | -0.125
160 | GCCCATCC | -0.0762
161 | AATCGGCT | 0.314
162 | CAGGGCAG | -0.155
163 | AGTATTCG | -0.00102
164 | CAAAGTTC | 0.0658
165 | CTTATTAA | 0.0248
166 | TACTAACA | -0.203
167 | CGGCGGCC | 0.149
168 | CATTGTGC | -0.163
169 | CGTGCGGA | 0.171
170 | AATCCGTG | 0.218
171 | CAGGAGAA | -0.147
172 | GGTACACA | -0.116
173 | CACAGATG | -0.154
174 | CTAGGTTC | 0.0667
175 | ACACCGCG | 0.133

Row | Sequence | PBM E-score
176 | CCTGTGAG | -0.301
177 | CCTTATCA | -0.178
178 | GAACCGGC | 0.239
179 | ACCCAGAC | -0.132
180 | ACATTCTC | -0.11
181 | TAGCCACA | -0.185
182 | TCTTCCAA | -0.0923
183 | GACGAGGC | 0.0238
184 | AACACCTT | -0.0166
185 | AGTAGACT | -0.0369
186 | GAATACTA | 0.024
187 | ATAGGTTA | -0.00756
188 | GACGTTCC | 0.0589
189 | ACATTGCT | -0.214
190 | TGGGGAAA | 0.0326
191 | CGGTCCTA | 0.33
192 | AATTCTAA | -0.0126
193 | CTTGTTGA | -0.205
194 | AAACATCG | 0.0904
195 | GGATTCAA | -0.0368
196 | CCTAAATC | 0.211
197 | CATAAAAA | 0.00983
198 | CAGCATAA | -0.116
199 | CAGACGCC | -0.0853
200 | AGGCGAAG | -0.0366

Row | Sequence | PBM E-score
201 | CCGCCCAA | -0.0507
202 | ATTTGCAG | 0.0991
203 | GCGTTCCA | -0.174
204 | CAACGCTC | -0.119
205 | CAGAGGAG | -0.217
206 | CCTTGGCC | -0.215
207 | GCATATTA | 0.0952
208 | AGTCGTAG | -0.205
209 | GCGTTTCC | 0.102
210 | TACAGGAA | -0.00019
211 | CTACCTTA | -0.0888
212 | ATGATTCG | 0.106
213 | GAGTTCTA | -0.122
214 | AGCGTGAT | -0.0923
215 | GTACGTCA | -0.147
216 | ATTGGCCG | 0.226
217 | CCTTTCAC | -0.103
218 | GCGTTACA | -0.0249
219 | ATCTGTGG | -0.105
